The source of these data is the antibiotic and cytotoxicity screens of Wong et al. (2023).

The other results are listed elsewhere or left out.

For this experiment, the system named is HSkMC (human skeletal muscle cells). Nature of the experiment: cytotoxicity call (relative viability < 0.9). To be noted: 10 µM.
On to `C[C@H]1CN([C@@H](C)CO)C(=O)c2cc(NS(=O)(=O)c3ccccc3)ccc2O[C@H]1CN(C)S(=O)(=O)c1ccc(F)cc1`, for which the cytotoxicity call was “inactive”.

Take `C[C@H](CO)N1C[C@H](C)[C@@H](CN(C)S(=O)(=O)c2cn(C)cn2)OCCCC[C@H](C)Oc2ccc(NC(=O)Nc3cccc4ccccc34)cc2C1=O`: the cytotoxicity call is “inactive”.

Turning to `COc1ccccc1C#Cc1ccc2c(c1)O[C@H](CN(C)Cc1ccncc1)[C@@H](C)CN([C@H](C)CO)S2(=O)=O`, the cytotoxicity call is “inactive”.

As for `COc1cccc(NC(=O)N[C@@H]2CC[C@H](CC(=O)N3CCOCC3)O[C@H]2CO)c1`, the cytotoxicity call is “inactive”.

As to `O=c1cc(-c2ccccc2)oc2ccc(O)cc12`, the cytotoxicity call was “inactive”.

Consider `C[C@@H]1CN([C@H](C)CO)C(=O)Cc2cc(NC(=O)Cc3cn(C)c4ccccc34)ccc2O[C@@H]1CN(C)C(=O)Nc1cccc2ccccc12`, for which the cytotoxicity call is “inactive”.

`COc1cccc(C#Cc2ccc3c(c2)O[C@H](CN(C)S(=O)(=O)c2ccccc2F)[C@@H](C)CN([C@H](C)CO)S3(=O)=O)c1`: the cytotoxicity call was “inactive”.

`C[C@@H]1CN([C@H](C)CO)C(=O)Cc2cc(NC(=O)Nc3ccc(C(F)(F)F)cc3)ccc2O[C@H]1CN(C)CC1CCCCC1`: the cytotoxicity call is “active”.

For the compound `C[C@@H]1CN([C@@H](C)CO)C(=O)Cc2cc(NC(=O)Nc3ccc(C(F)(F)F)cc3)ccc2O[C@@H]1CN(C)Cc1ccc(Cl)c(Cl)c1`, the cytotoxicity call was “active”.

Turning to `COc1cccc(S(=O)(=O)N(C)C[C@@H]2Oc3c(NC(=O)Nc4cccc5ccccc45)cccc3C(=O)N([C@@H](C)CO)C[C@H]2C)c1`, the cytotoxicity call was “inactive”.

`CN1C[C@@H](O)COC[C@@H]2O[C@@H](CC(=O)N3CCN(c4ccccc4)CC3)CC[C@H]21`: the cytotoxicity call was “inactive”.

On to `C[C@H](CO)N1C[C@H](C)[C@H](CN(C)C(=O)Nc2ccc3c(c2)OCO3)Oc2ncc(C#CC3(O)CCCC3)cc2C1=O`, for which the cytotoxicity call is “inactive”.

For the compound `C[C@H]1CN([C@@H](C)CO)C(=O)c2cc(NC(=O)Nc3ccccc3)ccc2O[C@H]1CN(C)Cc1ccc(Oc2ccccc2)cc1`, the cytotoxicity call is “inactive”.

Regarding `C[C@@H]1CN([C@H](C)CO)C(=O)Cc2cc(NS(=O)(=O)c3ccccc3)ccc2O[C@H]1CN(C)S(=O)(=O)c1ccccc1`, the cytotoxicity call is “inactive”.

Consider `C[C@@H]1CN([C@@H](C)CO)C(=O)Cc2cc(NS(=O)(=O)c3cn(C)cn3)ccc2O[C@@H]1CN(C)CC1CCCCC1`, for which the cytotoxicity call is “inactive”.

As to `CC(C)NC(=O)Nc1cccc2c1O[C@H](CN(C)Cc1ccc(Oc3ccccc3)cc1)[C@@H](C)CN([C@@H](C)CO)C2=O`, the cytotoxicity call is “inactive”.

On to `N[C@@H](CSCc1ccccc1Cl)C(=O)O`, for which the cytotoxicity call was “inactive”.

As for `COc1cccc(NC(=O)N2C[C@@H](O)COC[C@H]3O[C@@H](CC(=O)NCCCN4CCOCC4)CC[C@@H]32)c1`, the cytotoxicity call is “inactive”.

Regarding `O=C1c2ccccc2-c2c(-c3ccccc3)nc3ccccc3c21`, the cytotoxicity call was “inactive”.

On to `COc1ccc(S(=O)(=O)Nc2ccc3c(c2)C(=O)N([C@H](C)CO)C[C@H](C)[C@H](CN(C)S(=O)(=O)c2cn(C)cn2)O3)cc1`, for which the cytotoxicity call was “inactive”.

As to `O=C(C[C@H]1C[C@H]2c3cc(NS(=O)(=O)c4ccc(F)cc4)ccc3O[C@H]2[C@H](CO)O1)NC1CCCC1`, the cytotoxicity call was “inactive”.

`COc1ccc(NC(=O)N(C)C[C@H]2Oc3c(NC(=O)Nc4ccc(C(F)(F)F)cc4)cccc3C(=O)N([C@@H](C)CO)C[C@@H]2C)cc1`: the cytotoxicity call is “active”.

Regarding `C[C@H]1CN([C@@H](C)CO)C(=O)Cc2cc(NC(=O)Nc3ccc(F)cc3)ccc2O[C@H]1CN(C)S(=O)(=O)c1ccc(Oc2ccccc2)cc1`, the cytotoxicity call is “inactive”.

In the case of `CC(C)NC(=O)N(C)C[C@@H]1OCCCC[C@@H](C)Oc2ccc(NS(C)(=O)=O)cc2C(=O)N([C@H](C)CO)C[C@H]1C`, the cytotoxicity call is “inactive”.

As to `COc1cccc(CNc2nn[nH]n2)c1OC`, the cytotoxicity call was “inactive”.

Consider `COc1ccc(S(=O)(=O)Nc2ccc3c(c2)CC(=O)N([C@@H](C)CO)C[C@@H](C)[C@H](CN(C)S(=O)(=O)c2cn(C)cn2)O3)cc1`, for which the cytotoxicity call is “inactive”.

With `COc1ccc(S(=O)(=O)N(C)C[C@H]2Oc3ccc(NC(=O)CCCN(C)C)cc3CC(=O)N([C@@H](C)CO)C[C@@H]2C)cc1`, the cytotoxicity call was “inactive”.

Regarding `COc1cccc(S(=O)(=O)Nc2ccc3c(c2)[C@@H]2C[C@@H](CC(=O)NC4CCCCC4)O[C@H](CO)[C@@H]2O3)c1`, the cytotoxicity call was “inactive”.

For `C[C@@H]1CN([C@H](C)CO)C(=O)c2cc(NC(=O)Nc3ccc(C(F)(F)F)cc3)ccc2O[C@@H](C)CCCCO[C@@H]1CN(C)C(=O)C1CCCCC1`, the cytotoxicity call is “inactive”.

Regarding `CNC[C@@H]1OCCCC[C@@H](C)Oc2ccc(NC(=O)CCCN(C)C)cc2C(=O)N([C@@H](C)CO)C[C@H]1C`, the cytotoxicity call is “inactive”.
